The text below walks through data of publication PMC6212790.

The other results are listed elsewhere or left out. At the low end of the ranking the order means little.

In the assay the target is T1, GST-Rok (full length) (UniProt O34857).
T1 sequence: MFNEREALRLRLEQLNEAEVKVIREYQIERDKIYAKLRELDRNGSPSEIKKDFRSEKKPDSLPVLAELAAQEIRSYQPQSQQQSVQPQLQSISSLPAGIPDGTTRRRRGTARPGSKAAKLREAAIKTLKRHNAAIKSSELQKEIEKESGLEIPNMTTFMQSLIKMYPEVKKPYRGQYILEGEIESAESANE
Briefly: protein binding microarray.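 Note: rank score from −0.5 (least bound) to 0.5 (best bound).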 As to conditions: Rok is a gene silencer of Bacillus subtilis; high values mean tight binding; most listed sequences are background and not binding sites; double strand, one strand shown.
CAAGCCTA returned a binding signal of -0.112 E-score.

On to CGCCCCGA, for which the binding signal is -0.277 E-score. Sequence GGTTTGCA returned a binding signal of 0.106 E-score. For TACGTGGA, the binding signal was -0.116 E-score. Sequence TTCAACAA came in with a binding signal of 0.0149 E-score. Under GGATAGAA stands 0.171 E-score.

GACTAGAA gave a binding signal of 0.15 E-score. On to CCGATCAA, for which the binding signal is -0.0532 E-score.

AAAGGTTC had a binding signal of -0.0954 E-score. Then GGTAAGTA, with 0.19 E-score; and TAGGCCCA, with -0.208 E-score; and AGCAATTA, with 0.298 E-score.

ACAATTGA came in with a binding signal of 0.124 E-score. On to AGTCTCTG, for which the binding signal was -0.0485 E-score.

On to AAGACAAG, for which the binding signal was -0.0341 E-score. Under ACCTACCC stands -0.0185 E-score; under TATCCTAA, 0.187 E-score. AACTTAGG yielded a binding signal of -0.0144 E-score.

ACACAGTC had a binding signal of 0.00717 E-score. GCACCTAA: the binding signal is -0.0517 E-score.

In the case of CAGTAGAC, the binding signal was -0.15 E-score. ACCTCGCT showed a binding signal of -0.161 E-score. AGTGTTAC: the binding signal amounted to 0.173 E-score. With CCCAGTGC, the binding signal is -0.292 E-score. The sequence AGCCAAGA displayed a binding signal of -0.126 E-score. Under GGCGTTAA stands -0.174 E-score; under AGCCCCCT, -0.5 E-score; under ATGGGTTA, 0.18 E-score. CAGCGCCC returned a binding signal of -0.336 E-score. Take CCGGACGC: the binding signal was -0.271 E-score. On to CCAAATCG, for which the binding signal was -0.0877 E-score. With CCCCTCCC, the binding signal is -0.375 E-score. Under GAGATCAC stands -0.09 E-score; under CGGCGTGC, -0.274 E-score. On to GTCTCCCA, for which the binding signal is -0.324 E-score. As to AACTAAGT, the binding signal is 0.232 E-score. Regarding ATCGAAAT, the binding signal stood at 0.357 E-score. For the sequence CTTTGGTA, the binding signal was found to be 0.1 E-score. With CGTTTATC, the binding signal is 0.177 E-score. For AAGCAGAC, the binding signal was -0.0465 E-score. CCCCGACA: the binding signal is -0.208 E-score. With CCGGCAGG, the binding signal was -0.295 E-score. CATAGCAG came in with a binding signal of 0.0382 E-score. Sequence AATGAAGG registered a binding signal of -0.0948 E-score. Then ACATGATG, with 0.000516 E-score; and CGCTCAAA, with -0.0792 E-score; and AAACCACT, with -0.00242 E-score. Under GTTCGAGA stands 0.0784 E-score; under CCTAGAAC, -0.007 E-score. For CGGGGGAA, the binding signal is -0.378 E-score. With GAGGTAGC, the binding signal was -0.0251 E-score.

In the case of GCACAACC, the binding signal is -0.0983 E-score. AACGAGCC registered a binding signal of -0.116 E-score. Under ATCAACTA stands 0.322 E-score.

With CAGTTTAG, the binding signal was found to be 0.106 E-score. For AGAGTTGG, the binding signal is -0.0223 E-score.

In turn, CGAACGTC gave a binding signal of -0.21 E-score. Sequence CTGCACCA showed a binding signal of -0.0718 E-score. ATAGTGTC registered a binding signal of 0.113 E-score. Take GCACGACA: the binding signal is -0.0532 E-score. Consider GTTACGGA, for which the binding signal was -0.133 E-score. In turn, GTAACCAC came in with a binding signal of 0.127 E-score.

With ACCGGAGA, the binding signal is 0.0649 E-score. Sequence CCGGTACA came in with a binding signal of -0.0865 E-score. For the sequence CCTTAGTC, the binding signal is -0.116 E-score. Under AGTGGCGA stands 0.0254 E-score; under ATTAATGG, 0.0209 E-score; under CGACGGGA, -0.275 E-score. In the case of CGAACGCG, the binding signal is -0.0528 E-score. As to AATTCTGC, the binding signal was 0.157 E-score. GAAAACTC yielded a binding signal of -0.114 E-score. Under ACCCCTTA stands -0.233 E-score; under GTCATGGA, 0.0816 E-score.

The sequence AGCTGAAT returned a binding signal of -0.113 E-score.

CGCCGGAC had a binding signal of -0.314 E-score. As for ACCGAACG, the binding signal is -0.154 E-score. Regarding CAGAGACC, the binding signal is -0.235 E-score. Regarding TGGTACAA, the binding signal worked out at 0.244 E-score. For the sequence CTAGCTTA, the binding signal is 0.26 E-score. On to CACCCCAA, for which the binding signal is -0.151 E-score.

Turning to GGTTCAAC, the binding signal was -0.214 E-score. For the sequence ACGTTCAC, the binding signal was found to be 0.0408 E-score. CCGTTCCC yielded a binding signal of -0.3 E-score. In the case of AAGGTTGC, the binding signal is -0.215 E-score. Regarding TGCAGGAA, the binding signal stood at 0.0814 E-score. Then CTCATCTA, with 0.0678 E-score; and CCTCGCCC, with -0.239 E-score; and CGCCTCAA, with -0.22 E-score. In the case of GCAGCTGA, the binding signal was -0.238 E-score.

AATATCTG yielded a binding signal of 0.268 E-score. CCGGCTAA came in with a binding signal of -0.121 E-score. Sequence TGGGCGAA displayed a binding signal of -0.103 E-score. For the sequence ACAAATGG, the binding signal was 0.155 E-score. For CTGTGTAA, the binding signal turned out to be 0.129 E-score.

For CACGCTCA, the binding signal was -0.099 E-score. As for AGCATCCA, the binding signal is -0.0796 E-score. Take CTTAGACC: the binding signal is -0.171 E-score. With AGCGTACT, the binding signal was 0.0975 E-score. In turn, AAAGAGCA had a binding signal of -0.282 E-score.

In turn, CCAGAGTA showed a binding signal of -0.125 E-score.

The sequence AGGTGCAA showed a binding signal of 0.0285 E-score. In the case of AGATACGC, the binding signal amounted to 0.136 E-score.

In turn, AACTCTAG had a binding signal of 0.0553 E-score. In turn, GGCAAAAC had a binding signal of -0.0301 E-score.

In the case of GGAAAGGA, the binding signal is -0.0983 E-score. Then CTCAGGTC, with -0.312 E-score; and GGTGGCAC, with -0.0634 E-score; and CTACCCTC, with -0.104 E-score.

Sequence ACGTTAGC showed a binding signal of -0.0213 E-score. ATGAGGTG came in with a binding signal of 0.028 E-score. Regarding ACACACAT, the binding signal was -0.0651 E-score. Under CACTGGAG stands -0.135 E-score; under CGATTACC, 0.0362 E-score. In turn, ACTTGGAG had a binding signal of -0.0771 E-score.

AGGACCGA gave a binding signal of -0.189 E-score. The sequence AACAATAT gave a binding signal of 0.144 E-score. In turn, ACCTACTG gave a binding signal of 0.295 E-score. Then GCAAGACA, with -0.0947 E-score; and GACCTAAA, with -0.034 E-score.

Consider CGATGGGC, for which the binding signal is -0.249 E-score. Regarding GTGCACGA, the binding signal was -0.045 E-score. Sequence GTCTTGAA came in with a binding signal of -0.32 E-score.

AACCACCC returned a binding signal of -0.239 E-score. With CACGTACG, the binding signal is -0.118 E-score.

Consider AAAGTAGA, for which the binding signal came out at 0.287 E-score. For ACCTAGGG, the binding signal was -0.142 E-score. For the sequence ACCCTGAG, the binding signal is -0.0255 E-score. GACGGCAA returned a binding signal of -0.163 E-score.

GGCTCTAA gave a binding signal of 0.0778 E-score.

In turn, AAAATAGT came in with a binding signal of 0.407 E-score.

Take CCCATTAA: the binding signal was -0.225 E-score.

Sequence CTAGTCAA had a binding signal of 0.114 E-score.

For the sequence CTGCTAAC, the binding signal stood at 0.143 E-score. Take AGTCTGGG: the binding signal worked out at 0.00199 E-score. CGTAGCAC showed a binding signal of 0.00806 E-score.

Regarding ACGGTAGA, the binding signal was found to be 0.365 E-score. In turn, GATTGTAC gave a binding signal of 0.317 E-score. In turn, CGCAAAAC registered a binding signal of 0.0654 E-score. As to ACAGTTCA, the binding signal was 0.165 E-score.

The sequence CATAATAA came in with a binding signal of 0.252 E-score. As to CGTGGACA, the binding signal is -0.115 E-score. GGGACGAC yielded a binding signal of 0.0145 E-score. Under ACACACTA stands 0.311 E-score; under AATCTAAT, 0.263 E-score; under AGCCCTAT, -0.0484 E-score. On to AAAACAGT, for which the binding signal turned out to be 0.231 E-score. In turn, CTCGGTAA displayed a binding signal of 0.0988 E-score.

ACAAAGAT registered a binding signal of 0.0709 E-score. As to CTCGCTTC, the binding signal was -0.129 E-score.

On to AACGTAGC, for which the binding signal is -0.0241 E-score. AACCCAGG: the binding signal is -0.0972 E-score. In the case of GCGATACA, the binding signal worked out at 0.179 E-score. In the case of ATACTACA, the binding signal is 0.408 E-score. In turn, CCCCTGAG returned a binding signal of -0.249 E-score.

With TACTGTCA, the binding signal came to 0.197 E-score.

For the sequence ATAATAGC, the binding signal amounted to 0.288 E-score.

In the case of CGTGAATC, the binding signal was -0.00109 E-score.

ACAATACT: the binding signal was determined as 0.227 E-score. Then CCATGTTC, with 0.00789 E-score.

As for ATACAGAT, the binding signal was determined as 0.224 E-score. Consider GCTATCAA, for which the binding signal was found to be 0.164 E-score. Turning to CTTAAATC, the binding signal was -0.0428 E-score. Regarding CTACCTTC, the binding signal worked out at 0.0635 E-score. In turn, AACTGTTG displayed a binding signal of -0.0237 E-score. Turning to AGGTGCAT, the binding signal was -0.0671 E-score. In turn, CTAGATGC registered a binding signal of 0.0945 E-score.

Consider CTTCAACA, for which the binding signal was -0.0039 E-score. In turn, GGAATATA gave a binding signal of 0.366 E-score. As to CCTTGTTA, the binding signal is -0.224 E-score. Then AATGCAGG, with -0.0735 E-score; and GCCTGAAA, with -0.212 E-score. Consider CTTTGAAC, for which the binding signal is -0.0397 E-score.
